Reference: paper PMC4336329 (PLoS ONE, 2015)
The whole screen tested about 310,000 compounds, of which about 14,000 (4.5%) showed an effect of 50% or more. Effects have a minus sign here. This is one part of the list.

What follows are compounds tested against human ether-à-go-go-related gene (hERG) potassium channel (human, UniProt Q12809) (assay: primary screen, population patch clamp on CHO cells stably expressing hERG).
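Note: peak tail current of the secondary pulse compared with the same well before compound.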

Sequence of human ether-à-go-go-related gene (hERG) potassium channel (Q12809 whole entry, looked up): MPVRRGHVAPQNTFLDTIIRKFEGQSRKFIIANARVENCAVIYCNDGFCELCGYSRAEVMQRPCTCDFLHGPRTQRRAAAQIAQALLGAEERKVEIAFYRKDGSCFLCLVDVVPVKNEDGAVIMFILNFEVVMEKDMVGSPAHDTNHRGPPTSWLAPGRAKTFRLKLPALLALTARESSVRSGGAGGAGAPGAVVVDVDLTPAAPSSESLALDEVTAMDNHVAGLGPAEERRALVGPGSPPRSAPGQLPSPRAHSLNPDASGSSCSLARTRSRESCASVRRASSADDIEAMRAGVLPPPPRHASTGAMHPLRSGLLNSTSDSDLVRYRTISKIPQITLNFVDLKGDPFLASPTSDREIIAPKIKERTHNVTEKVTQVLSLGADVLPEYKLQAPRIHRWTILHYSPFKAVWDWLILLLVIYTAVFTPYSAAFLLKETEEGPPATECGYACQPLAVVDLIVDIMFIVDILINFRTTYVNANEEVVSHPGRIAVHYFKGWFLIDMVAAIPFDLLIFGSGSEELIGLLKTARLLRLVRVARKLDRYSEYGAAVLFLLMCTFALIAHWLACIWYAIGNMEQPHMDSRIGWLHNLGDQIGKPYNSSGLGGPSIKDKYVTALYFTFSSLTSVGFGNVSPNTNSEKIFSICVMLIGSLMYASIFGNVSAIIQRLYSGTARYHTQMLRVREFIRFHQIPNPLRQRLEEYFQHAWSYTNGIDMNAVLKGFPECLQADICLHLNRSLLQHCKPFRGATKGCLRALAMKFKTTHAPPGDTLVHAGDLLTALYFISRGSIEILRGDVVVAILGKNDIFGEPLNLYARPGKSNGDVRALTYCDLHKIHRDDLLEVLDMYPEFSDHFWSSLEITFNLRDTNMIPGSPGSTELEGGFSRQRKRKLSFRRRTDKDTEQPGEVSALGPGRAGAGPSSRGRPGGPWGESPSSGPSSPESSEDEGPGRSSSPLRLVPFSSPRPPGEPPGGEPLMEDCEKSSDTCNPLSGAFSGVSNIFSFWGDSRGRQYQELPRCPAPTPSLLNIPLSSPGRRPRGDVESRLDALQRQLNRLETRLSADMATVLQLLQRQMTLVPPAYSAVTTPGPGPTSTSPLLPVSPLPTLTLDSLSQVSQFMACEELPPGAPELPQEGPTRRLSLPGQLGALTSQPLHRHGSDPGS

Compound | hERG current change (%, negative = inhibition) at 10uM
Cc1cccc(C(=S)N2CCOCC2)n1 | 5.42%
Oc1ccc(Cl)cc1CN1CCN(Cc2ccccc2)CC1 | -35.6%
COc1ccccc1CC(=O)Nc1ccc(S(=O)(=O)N2CCN(C)CC2)cc1 | 14.4%
COc1ccc(Br)cc1S(=O)(=O)NCCN1CCOCC1 | 11.9%
Cn1c(SCc2cnc(-c3ccccc3)s2)nnc1C1COc2ccccc2O1 (stereo not shown) | -1.06%
COCCN(C(=O)c1ccc(NC2CC2)c([N+](=O)[O-])c1)c1c(N)n(CC(C)C)c(=O)[nH]c1=O | -5.42%
COc1ccc(OCC(=O)Nc2cc(NC(=O)c3ccco3)ccc2OC)cc1 | 5.23%
Cn1nnc2cc(C(=O)NC(C)(C)C)ccc21 | 3.28%
COc1cccc(N2CCN(c3ccc4nnc(CCC(=O)N5CCN(C)CC5)n4n3)CC2)c1 | -1.62%
CCC(C)c1ccc(NC(=S)NCc2cccnc2)cc1 (stereo not shown) | -18.9%
Br.Oc1ccc(C2CNCCc3c2cc(O)c(O)c3Cl)cc1 (stereo not shown) | -3.12%
Cc1ccc(-n2nc3c(=O)n(CCCC(=O)NCc4ccccc4Cl)nc(C)c3c2C)cc1 | -5.89%
CCCc1cc(=O)oc2cc(OCC(=O)NCCCn3ccnc3)c(Cl)cc12 | -72.3%
Cc1ccc(C(=O)NCc2ccc3c(c2)OCO3)cc1N1CCCC1=O | -3.82%
CC1Cc2nc(SCC(N)=O)n(C)c(=O)c2S1 (stereo not shown) | -9.86%
COC(=O)c1cccc(NC(=O)C2C3CCC(C3)C2C(=O)O)c1 (stereo not shown) | -10%
CN(C)S(=O)(=O)c1cccc(C(=O)NC2CCSc3ccccc32)c1 (stereo not shown) | -5.74%
Cc1ccc(/C=N/n2c(C3CCCCC3)n[nH]c2=S)o1 | 12.1%
Fc1ccccc1NC(=S)NN(Cc1ccccc1)c1ccccc1 | -13.9%
Cc1ccc(OCC(=O)Nc2cc(-c3nn4c(C)nnc4s3)ccc2C)cc1 | -24.7%
Cc1cccnc1NC(=O)C1CCCN1S(=O)(=O)c1ccc(Cl)cc1 (stereo not shown) | -1.03%
Cc1onc(-c2ccccc2)c1C(=O)Nc1ccccc1N1CCOCC1 | -33.2%
O=S1(=O)N=C(N2CCOCC2)c2ccccc21 | -3.93%
COc1cccc(N2C(=O)CC(NNc3nc4ccccc4s3)C2=O)c1 (stereo not shown) | -1.73%
C=C1[C@H]2CC[C@H]3[C@]4(C)C[C@H](O[C@H]5O[C@H](CO)[C@@H](OS(=O)(=O)[O-])[C@H](OS(=O)(=O)[O-])[C@H]5OC(=O)CC(C)C)C[C@@H](C(=O)O)[C@H]4CC[C@]3(C2)[C@H]1O.[K+] | 13.4%
O=C(CN1C(=O)CSC1=O)N1CCCCC1 | -1.04%
Cc1ccc(CNCCNCCO)s1.Cl | 0.854%
CCCCNc1c(-c2ccc(SC3CCCCC3)cc2)nc2ccccn12.O=C(O)C(F)(F)F | -6.31%

Compound | hERG current change (%, negative = inhibition) at 10uM
Cc1c(CC(=O)O)c(=O)oc2c(C)c3occ(-c4ccc(Br)cc4)c3cc12 | 15.1%
CC(NC(=O)C(=O)NN=C1CCC(C(C)(C)C)CC1)c1ccccc1 (stereo not shown) | -21.4%
O=S(=O)(Nc1cccc(-c2cn3cccnc3n2)c1)c1ccc(-c2ccccc2)cc1 | -3.18%
COc1ccc(OC)c(S(=O)(=O)NCCC2=CCCCC2)c1 | -0.427%
O=C(CSc1nnc(NC(=O)c2ccco2)s1)NCc1ccc2c(c1)OCO2 | 17.5%
COc1ccc2c(c1)c(=O)oc1cc(OCC(=O)NC3CC3)ccc12 | 13.2%
CC(C)Sc1nc2c(c(=O)[nH]1)C(c1cccs1)C1=C(CC(C)(C)CC1=O)N2 (stereo not shown) | -11.3%
CC(=O)c1cccc(OCc2cc(C(=O)NC3CCN(Cc4ccccc4)CC3)no2)c1 | -62.9%
COc1cccc(CNC(=O)Cc2ccc(S(=O)(=O)N3CCOCC3)s2)c1 | 4.9%
COc1cc(C)nc(Nc2nc(C)c(C(C)=O)s2)n1 | 15.9%
Cc1cccc(NC(=O)CSc2nc(-c3ccccc3)c(C#N)c(=O)[nH]2)c1C | -8.39%
COc1cccc(C(=O)NNC(=O)/C=C/c2ccccc2)c1 | 17.7%
CN(C1CCCCC1)S(=O)(=O)c1ccc(NC(=O)C2CCCCC2C(=O)O)cc1 (stereo not shown) | 3.45%
O=C(Cn1cnc2cc([N+](=O)[O-])ccc2c1=O)NC(c1ccccc1)c1ccccc1 | 5.36%
CCN(CC)S(=O)(=O)c1ccc(N2CCCC2)c(NC(=O)Cc2ccccc2)c1 | -19.9%
Cc1ccc(S(=O)(=O)N2CCN(C(=O)CN3CCN(C)CC3)C2)cc1 | 14.1%
Cc1nc2nc(C)c(CCC(=O)NC(C)c3ccc4c(c3)OCCO4)c(C)n2n1.Cl (stereo not shown) | 12.7%
COc1cc(CNC2CCCC2)cc(OC)c1 | 12%
Nc1c(C(=O)Nc2ccc3c(c2)OCCO3)nnn1Cc1ccc(Cl)cc1 | -2.19%
CCOc1ccc(Cl)cc1S(=O)(=O)N1CCC(C(=O)NCC2CCCO2)CC1 (stereo not shown) | -2.63%
COc1ccc(CSCCNC(=S)Nc2ccccc2)cc1Cl | 16.3%
O=C(Nc1ccc(N2CCOCC2)cc1Cl)C1CCN(C(=O)OCc2ccccc2)CC1 | -32.1%
CCOCCCNCc1ccc(Cl)cc1 | -13.7%
C/C(=N/OC(=O)c1ccc(Cl)cc1Cl)c1oc(C)nc1C | 6.42%
O=C(c1cc(-c2ccc(Cl)s2)nc2ccccc12)N1CCCC1 | 4.92%
Cc1ccc(C(=O)CC2(O)C(=O)N(CCc3ccccc3)c3ccc(Br)cc32)o1 (stereo not shown) | -26.1%
COc1ccc(/C=N/NC(=S)NCC2CCCO2)cc1 (stereo not shown) | 6.97%
